According to the supplement of paper PMC2702839:
Structures can show the parent of a compound that is named as a salt. This is one part of the list.

Test system: Schistosoma mansoni schistosomula
Assay: phenotypic hit in primary schistosomula screen (any phenotype vs DMSO control) (binary (1 = hit, 0 = no phenotype)); higher = active (phenotype induced)
Settings: 1 µM; time (d): 7

Row | SMILES | phenotypic hit
1 | O=C(O[C@@H]1Cc2c(O)cc(O)cc2O[C@@H]1c1cc(O)c(=O)c2c(O)c(O)cc([C@H]3Oc4cc(O)cc(O)c4C[C@H]3O)c2c1)c1cc(O)c(O)c(O)c1 [theaflavin monogallates] | inactive: 0
2 | C[C@@H]1C[C@H]2[C@@H]3CCC4=CC(=O)C=C[C@]4(C)[C@@]3(F)[C@@H](O)C[C@]2(C)[C@@]1(O)C(=O)CO [dexamethasone] | inactive: 0
3 | O=C(O)CCCc1ccccc1 [phenylbutyric acid] | inactive: 0
4 | O=C(O)CCCc1ccccc1 [phenylbutyrate sodium] | inactive: 0
5 | CC(C)NCC(O)COc1ccc(CC(N)=O)cc1 (racemic) [(±)-Atenolol] | inactive: 0
6 | Cc1cnc(NC(=O)C2=C(O)c3ccccc3S(=O)(=O)N2C)s1 [meloxicam] | inactive: 0
7 | NC1=NCCN1CC(=O)O [cyclocreatine] | inactive: 0
8 | CC1(C)O[C@@H]2C[C@H]3[C@@H]4CCC5=CC(=O)C=C[C@]5(C)[C@@]4(F)[C@@H](O)C[C@]3(C)[C@]2(C(=O)CO)O1 [triamcinolone acetonide] | inactive: 0
9 | C1CCN2C[C@@H]3C[C@@H](CN4CCCC[C@@H]34)[C@H]2C1 [sparteine sulfate] | inactive: 0
10 | CC(=O)OCC(OC(C)=O)C(OC(C)=O)C(OC(C)=O)C(OC(C)=O)C(COC(C)=O)OC(C)=O (stereo unspecified) [persitol heptaacetate] | inactive: 0
11 | C=CCCCCCCCCCCC/C=C/C(O)COC(C)=O (stereo unspecified) [dehydroavocatin -1-acetate] | inactive: 0
12 | OC[C@H]1O[C@@H](n2cnc3c(NCc4ccco4)ncnc32)[C@H](O)[C@@H]1O [kinetin riboside] | inactive: 0
13 | CC1CC(OC(=O)C(O)c2ccccc2)CC(C)(C)N1C (stereo unspecified) [eucatropine hydrochloride] | inactive: 0
14 | Cc1nnc(NS(=O)(=O)c2ccc(N)cc2)s1 [sulfamethizole] | inactive: 0
15 | CC(=O)O[C@@H]1CC2C(C)(C)C(=O)C3OC3[C@]2(C)C2CC[C@@]3(C)[C@H](c4ccoc4)OC(=O)C4OC43[C@@]21C (stereo partly specified) [epoxygedunin] | active: 1
16 | Nc1ccc(S(=O)(=O)Nc2ccnn2-c2ccccc2)cc1 [Sulfaphenazole] | inactive: 0
17 | CO/N=C(\C(=O)N[C@@H]1C(=O)N2C(C(=O)O)=C(COC(N)=O)CS[C@H]12)c1ccco1 [cefuroxime sodium] | inactive: 0
18 | CCC(=O)c1c(O)cc(O)cc1O [flopropione] | inactive: 0
19 | Nc1nc2[nH]c(=O)cnc2c(=O)[nH]1 [Isoxanthopterin] | inactive: 0
20 | CC1Cc2ccccc2N1NC(=O)c1ccc(Cl)c(S(N)(=O)=O)c1 (stereo unspecified) [indapamide] | inactive: 0
21 | C[C@H](CCC(=O)O)[C@H]1CC[C@H]2[C@@H]3CC[C@@H]4C[C@H](O)CC[C@]4(C)[C@H]3C[C@H](O)[C@]12C [deoxycholic acid] | inactive: 0

Row | SMILES | phenotypic hit
22 | CC(C)C[C@@H]1NC(=O)[C@H](CCCN)NC(=O)[C@H](C(C)C)NC(=O)[C@H](Cc2ccc(O)cc2)N[C@@H](CCC(=O)O)C(=O)N[C@@H](CC(N)=O)C(=O)[C@@H](Cc2ccccc2)NC(=O)[C@H](Cc2ccccc2)NC(=O)[C@@H]2CCCN2C(=O)[C@@H](Cc2ccccc2)NC1=O [tyrothricin] | inactive: 0
23 | CN(C)C(=O)Nc1ccc(Cl)c(Cl)c1 [diuron] | inactive: 0
24 | CC1(C)C=CC(=O)[C@@]2(C)C1CC(=O)[C@]1(C)C2CC[C@@]2(C)[C@H](c3ccoc3)OC(=O)C3OC321 (stereo partly specified) [deacetoxy-7-oxisogedunin] | inactive: 0
25 | CC(=O)OC1CCC2(C)C(CCC3(C)C2CC=C2C4C(C)C(C)CCC4(C(=O)O)CCC23C)C1(C)C (stereo unspecified) [ursolic acid acetate] | inactive: 0
26 | O=C(O)C1=CCCNC1 [Guvacine hydrochloride] | inactive: 0
27 | Cc1cc(CC(=O)O)n(C)c1C(=O)c1ccc(Cl)cc1 [zomepirac sodium] | inactive: 0
28 | COC(=O)CC[C@@H](C)[C@H]1CC[C@H]2[C@@H]3[C@H](O)C[C@@H]4C[C@H](O)CC[C@]4(C)[C@H]3C[C@H](O)[C@]12C [cholic acid, methyl ester] | inactive: 0
29 | COc1c(O)cccc1O [2-methoxyresorcinol] | inactive: 0
30 | CC12CCC(CC1)C(C)(C)O2 [cineole] | inactive: 0
31 | CC1(C)CC[C@]2(C(=O)O)CC[C@]3(C)C(=CC[C@@H]4[C@@]5(C)CC[C@H](O)[C@@](C)(CO)[C@@H]5CC[C@]43C)[C@@H]2C1 [hederagenin] | inactive: 0
32 | CC(C)/C(O)=C1/C(=O)O[C@@H](c2ccoc2)[C@]2(C)C(O)[C@@H](O)[C@@]34OC5(C)OC67CC(C)(C(O)[C@]6(O)[C@@H](O)[C@]3(O5)C12)[C@H](CC(=O)O)[C@]74C (stereo partly specified) [hydrolysis product of bussein] | inactive: 0
33 | CC[C@H]1OC(=O)[C@H](C)[C@@H](O[C@H]2C[C@@](C)(OC)[C@@H](O)[C@H](C)O2)[C@H](C)[C@@H](O[C@@H]2O[C@H](C)C[C@H](N(C)C)[C@H]2O)[C@](C)(O)C[C@@H](C)[C@@H]2N[C@@H](COCCOC)O[C@H]([C@H]2C)[C@]1(C)O [dirithromycin] | inactive: 0
34 | O=c1cc[nH]c(=S)[nH]1 [2-thiouracil] | inactive: 0
35 | COc1ccc(-c2c(OC)c3c(OC)c4c(cc3oc2=O)OC(C)(C)C=C4)cc1 [robustic acid methyl ether] | inactive: 0
36 | CC(=O)Oc1ccc2c(c1)CCC1C2CC[C@]2(C)C(=O)CCC12 (stereo partly specified) [estrone acetate] | inactive: 0
37 | CN(C)c1nc(N(C)C)nc(N(C)C)n1 [altretamine] | inactive: 0
38 | CC(=O)N[C@@H](Cc1c[nH]c2ccccc12)C(N)=O [acetyltryptophanamide] | inactive: 0
39 | CC(=O)O[C@]1(C(C)=O)CC[C@H]2[C@@H]3C[C@H](C)C4=CC(=O)CC[C@]4(C)[C@H]3CC[C@@]21C [medroxyprogesterone acetate] | inactive: 0
40 | CC(C)NCC(O)c1ccc2ccccc2c1 (stereo unspecified) [pronetalol hydrochloride] | inactive: 0
41 | C[C@H]1C[C@@H]2[C@H]([C@@H](O)C[C@@]3(C)[C@H]2CC[C@]3(O)C(=O)CO)[C@@]2(C)C=CC(=O)C=C12 [methylprednisolone] | inactive: 0
42 | CS(=O)(=O)CCCCN=C=S [erysolin] | inactive: 0

Row | SMILES | phenotypic hit
43 | CCCNCC(O)COc1ccccc1C(=O)CCc1ccccc1 (stereo unspecified) [propafenone hydrochloride] | inactive: 0
44 | CC1(C)C=C[C@H](O)[C@@]2(C)C1C[C@@H](O)[C@]1(C)C2CC[C@@]2(C)[C@H](c3ccoc3)OC(=O)[C@H]3O[C@]321 (stereo partly specified) [7-deacetyldihydrogedunin] | inactive: 0
45 | COc1cc([C@@H]2c3cc4c(cc3[C@@H](O[C@@H]3O[C@@H]5CO[C@@H](C)O[C@H]5[C@H](O)[C@H]3O)[C@H]3COC(=O)[C@H]23)OCO4)cc(OC)c1O [etoposide] | inactive: 0
46 | O=C(Nc1ccccc1)Nc1ccccc1 [diphenylurea] | inactive: 0
47 | O=c1c(O)c(-c2ccccc2)oc2cc(O)ccc12 [3,7-dihydroxyflavone] | inactive: 0
48 | O=c1c(O)c(-c2ccc(O)cc2O)oc2cc(O)cc(O)c12 [morin] | inactive: 0
49 | CC(C)C[C@@H](NC(=O)[C@H](C)NC(=O)CNC(=O)[C@@H](NC=O)C(C)C)C(=O)N[C@@H](C)C(=O)N[C@@H](C(=O)N[C@H](C(=O)N[C@H](C(=O)N[C@@H](Cc1c[nH]c2ccccc12)C(=O)N[C@H](CC(C)C)C(=O)N[C@@H](Cc1c[nH]c2ccccc12)C(=O)N[C@H](CC(C)C)C(=O)N[C@@H](Cc1c[nH]c2ccccc12)C(=O)N[C@H](CC(C)C)C(=O)N[C@@H](Cc1c[nH]c2ccccc12)C(=O)NCCO)C(C)C)C(C)C)C(C)C [gramicidin] | active: 1
50 | OC[C@H]1O[C@@H](Oc2cc(O)cc(/C=C/c3ccc(O)cc3)c2)[C@H](O)[C@@H](O)[C@@H]1O [piceid] | inactive: 0
51 | COc1cc(-c2coc3cc(O[C@@H]4O[C@H](CO)[C@@H](O)[C@H](O)[C@H]4O)c(OC)c(O)c3c2=O)cc(O)c1OC [iridin] | inactive: 0
52 | CCC(=O)O[C@]1(C(=O)CCl)[C@@H](C)C[C@H]2[C@@H]3CCC4=CC(=O)C=C[C@]4(C)[C@@]3(F)[C@@H](O)C[C@@]21C [clobetasol propionate] | inactive: 0
53 | O=C1C[C@@H](c2ccc(O)cc2)Oc2cc(O)cc(O)c21 [naringenin] | inactive: 0
54 | c1ccc([C@H]2CN3CCSC3=N2)cc1 [levamisole hydrochloride] | inactive: 0
55 | NC(=O)c1ccc([N+](=O)[O-])cc1Cl [aklomide] | inactive: 0
56 | O=C1OCCN1/N=C/c1ccc([N+](=O)[O-])o1 [furazolidone] | inactive: 0
57 | C1CNCCN1 [piperazine] | inactive: 0
58 | COc1c2occc2c(OC)c2c(=O)cc(C)oc12 [khellin] | inactive: 0
59 | COc1ccc(-c2coc3c(OC)c(OC)ccc3c2=O)cc1 [retusin dimethyl ether] | active: 1
60 | Cn1c(=O)[nH]c2[nH]cnc2c1=O [1-methylxanthine] | inactive: 0
61 | C[C@H](CCC(=O)O)[C@H]1CC[C@H]2[C@@H]3[C@H](O)C[C@@H]4C[C@H](O)CC[C@]4(C)[C@H]3CC[C@]12C [chenodiol] | inactive: 0
